PubChem BioAssay AID1479 (National Center for Advancing Translational Sciences (NCATS), 2009)
About 820 (0.29%) of roughly 280,000 compounds were called active. The shares of active, inactive and inconclusive entries below differ from those in the screen. The call rests on the fitted dose curve; in most records, active means well fitted curve in either direction with a large enough effect; inconclusive means small, poorly fitted or top-dose-only effect; inactive means flat fitted curve, though single readings scatter. Potencies of inconclusive entries are left out as doubtful fits.

Test: Total Fluorescence Counterscreen for Inhibitors of the Interaction of Thyroid Hormone Receptor and Steroid Receptor Coregulator 2
Conditions: TRb/SRC2 Texas Red total fluorescence interference; series mostly up to 106 µM
From the text: NIH Molecular Libraries Probe Production Network [MLPCN]
NIH Chemical Genomics Center [NCGC]
Assay Provider: R. Kip Guy, St. Jude Children's Research Hospital
Thyroid receptor (TR) regulates many homeostatic processes including basal metabolism, cardiovascular function, body weight, and lipid trafficking. TR modulators are potential therapeutics for obesity and hyperlipidemias but current thyroid analogs have undesirable side effects, particularly cardiac stimulation. To identify inhibitors that specifically prevent the interaction of TR with the steroid receptor […] 2 (SRC2), a fluorescence polarization assay was screened. This assay detects interaction of the ligand-binding domain of human TRb with a Texas Red labeled SRC2 peptide, corresponding to a 20 amino acid region of the nuclear receptor interaction domain (Arnold et al., 2006). Total fluorescence (555 nm excitation and 632 nm emission) was measured to identify potential fluorescent and light absorbing compounds. Such compounds may be artifacts that interfere with the fluorescence polarization assay.
Arnold, L. A.; Estebanez-Perpina, E.; Togashi, M.; Shelat, A.; Ocasio, C. A.; McReynolds, A. C.; Nguyen, P.; Baxter, J. D.; Fletterick, R. J.; Webb, P.; Guy, R. K. A high-throughput screening method to identify small molecule inhibitors of thyroid hormone receptor coactivator binding. Sci STKE 2006, p 13.
NCGC Assay Protocol Summary:
For screening, 5 uL/well 0.6 uM TRb and 20 nM SRC2 Texas Red in protein buffer (20mM Tris hydrochloride, 100mM NaCl, 10% glycerol, 1mM EDTA, 0.01% NP-40, 1mM DTT, 1uM T3 and 5% DMSO) was dispensed into black solid 1536-well plates (Grenier) using a solenoid-based dispenser. Following transfer of 23 nL compound or DMSO vehicle by a pin tool, the plates were centrifuged 15 s at 1000 RPM and incubated 5 hr at ambient temperature. The plates were read by an Envision (Perkin Elmer) to detect fluorescence polarization of SRC2 Texas Red (555 nm excitation and 632 nm emission). Data were normalized to unbound (all components except TRb) and bound SRC2 Texas Red controls. Total fluorescence (TF) was calculated as follows: TF = S + 2P where S and P are fluorescence readings in the parallel and perpendicular channels, respectively.
Keywords: NIH Roadmap, MLPCN, MLI, MLSMR, qHTS, NCGC, qHTS, thyroid hormone receptor, steroid receptor coactivator, fluorescence polarization
Potency means the concentration at half of the fitted maximal effect; tags describe the fitted curve by direction and shape or compound fluorescence and quenching.

**Q.** For N=C1SCC(=O)N1/N=C/c1ccccc1, which Potency is on record?
**A.** inactive

**Q.** Which Potency does the source give for O=C1/C(=C\c2ccc(O)c(O)c2)Oc2c1ccc(O[C@@H]1O[C@H](CO)[C@@H](O)[C@H](O)[C@H]1O)c2O here?
**A.** inactive

**Q.** For O=C(NCc1ccccc1)c1ccc(CSc2nc3cccnc3n2Cc2ccccc2)cc1, which Potency is on record?
**A.** inconclusive [quencher, full curve]

**Q.** Which Potency does the source give for CC[C@H](C)[C@H](NC(=O)[C@H](CCC(=O)O)NC(=O)[C@H](CO)NC(=O)[C@@H](NC(=O)[C@H](C)N)C(C)C)C(=O)N[C@@H](CCC(N)=O)C(=O)N[C@@H](CC(C)C)C(=O)N[C@@H](CCSC)C(=O)N[C@@H](Cc1cnc[nH]1)C(=O)N[C@@H](CC(N)=O)C(=O)N[C@@H](CC(C)C)C(=O)NCC(=O)N[C@@H](CCCCN)C(=O)N[C@@H](Cc1cnc[nH]1)C(=O)N[C@@H](CC(C)C)C(=O)N[C@@H](C)C(=O)N[C@@H](CO)C(=O)N[C@H](C(=O)N[C@@H](CCC(=O)O)C(=O)N[C@@H](CCCNC(=N)N)C(=O)N[C@@H](CCSC)C(=O)N[C@@H](CCC(N)=O)C(=O)N[C@@H](Cc1c[nH]c2ccccc12)C(=O)N[C@@H](CC(C)C)C(=O)N[C@@H](CCCNC(=N)N)C(=O)N[C@@H](CCCCN)C(=O)N[C@@H](CCCCN)C(=O)N[C@@H](CC(C)C)C(=O)N[C@@H](CCC(N)=O)C(=O)N[C@@H](CC(=O)O)C(=O)N[C@H](C(=O)N[C@@H](Cc1cnc[nH]1)C(=O)N[C@@H](CC(N)=O)C(=O)N[C@@H](Cc1ccccc1)C(=O)O)C(C)C)C(C)C here?
**A.** inconclusive [quencher, full curve]

**Q.** For CCC(=O)N1CCc2cc(Br)cc(S(=O)(=O)N3CCC(C(=O)Nc4cccc(C)c4)CC3)c21, which Potency is on record?
**A.** inconclusive [quencher]

**Q.** With C=CCNC(=S)NNC(=O)COc1ccc(Cl)cc1Cl as the molecule, how does the Potency read?
**A.** inconclusive [falling, full curve, poor fit]

**Q.** With COc1ccccc1NS(=O)(=O)c1cc([N+](=O)[O-])ccc1N/N=C/c1sc(N2CCOCC2)nc1-c1ccccc1 as the molecule, how does the Potency read?
**A.** inactive

**Q.** For CC(C)CCNC(=O)Cn1cc(S(=O)(=O)Cc2ccc(F)cc2)c2ccccc21, which Potency is on record?
**A.** inconclusive [quencher, full curve]

**Q.** For COc1ccc(C(=O)Nc2nc(-c3nnn(-c4cc(OC)ccc4OC)c3C)ns2)cc1, which Potency is on record?
**A.** inactive

**Q.** With O=C1CCSC2(C(=O)N(Cc3ccccc3)c3ccccc32)N1c1ccccc1 (stereo not drawn) as the molecule, how does the Potency read?
**A.** inconclusive [falling, partial curve, poor fit]

**Q.** With CN(C(=S)Nc1ccc(Oc2ccccc2)cc1)c1ccc(O)cc1 as the molecule, how does the Potency read?
**A.** inactive

**Q.** With Cc1ccc2nc(/C(C#N)=C/c3ccc(-c4ccc(C(=O)OC(C)C)cc4)o3)[nH]c2c1 as the molecule, how does the Potency read?
**A.** inconclusive [quencher, full curve]

**Q.** With COC(=O)c1cc2oc3ccccc3c2n1CC(=O)Nc1ccc(F)c(Cl)c1 as the molecule, how does the Potency read?
**A.** inconclusive [falling, full curve, poor fit]

**Q.** Which Potency does the source give for CCCOc1cccc(C(=O)N2CCCCC2CCN2CCCCC2)c1 (stereo not drawn) here?
**A.** inactive

**Q.** For O=C(Nc1ccc(F)cc1Cl)c1cnc(N2CCOCC2)c2ccccc12, which Potency is on record?
**A.** active: 11.2 µM [quencher]

**Q.** Which Potency does the source give for O=C(/C=C/c1ccco1)NC(=S)Nc1ccc(Cl)cn1 here?
**A.** inconclusive [quencher, partial curve]

**Q.** With CSc1nsc(/C=C/Nc2ccc(O)cc2C)c1C#N as the molecule, how does the Potency read?
**A.** active: 50.1 µM [fluorescent]

**Q.** With CCN(CC)c1ccc(NC(=O)CCc2c(C)nc3ncnn3c2C)c(C)c1 as the molecule, how does the Potency read?
**A.** inconclusive [falling, partial curve, poor fit]

**Q.** Which Potency does the source give for Cc1cccn2c(=O)c(C(=O)N3CCN(c4ccc(Cl)cc4)CC3)cnc12 here?
**A.** inactive

**Q.** Which Potency does the source give for O=C1N=C(N2CCOCC2)S/C1=C/c1cc2c(cc1[N+](=O)[O-])OCO2 here?
**A.** inconclusive [quencher, partial curve]

**Q.** With CC(C)N1CC2=C(OC(N)=C(C#N)C2c2cccnc2)/C(=C/c2cccnc2)C1 (stereo not drawn) as the molecule, how does the Potency read?
**A.** active: 44.7 µM [fluorescent]

**Q.** For CC(=O)c1ccc(NC(=O)c2ccc3nc(-c4ccco4)c(-c4ccco4)nc3c2)cc1, which Potency is on record?
**A.** inconclusive [quencher, partial curve]

**Q.** Which Potency does the source give for Cc1cc(/C=C(\C#N)C(N)=O)c(C)n1-c1ccc(N2CCOCC2)c([N+](=O)[O-])c1 here?
**A.** inconclusive [falling, full curve, poor fit]

**Q.** Which Potency does the source give for Cc1ccc(-c2cc(NC(=O)c3cccc(C)c3)on2)cc1 here?
**A.** inconclusive [falling, full curve, poor fit]

**Q.** For N=C1S/C(=C\c2ccc(O)cc2)C(=O)N1c1ccc(F)cc1, which Potency is on record?
**A.** inconclusive [quencher, partial curve]

**Q.** For CC(=O)[C@]1(O)Cc2c(O)c3c(c(O)c2[C@@H](O[C@H]2C[C@H](N)[C@H](O)[C@H](C)O2)C1)C(=O)c1ccccc1C3=O, which Potency is on record?
**A.** active: 44.7 µM [fluorescent]

**Q.** Which Potency does the source give for O=C(O)c1cccc(NC(=O)c2cc3cc(Br)cc(Br)c3oc2=O)c1 here?
**A.** inconclusive [quencher, full curve]

**Q.** With COc1cc(OC)c(NS(=O)(=O)c2c(C(=O)N3CCCCCC3)c(C)n(C)c2C)cc1Cl as the molecule, how does the Potency read?
**A.** inconclusive [falling, full curve, poor fit]

**Q.** For O=C1NC(=S)S/C1=C\c1ccc(SCc2ccco2)o1, which Potency is on record?
**A.** inconclusive [falling, full curve, poor fit]

**Q.** Which Potency does the source give for CCOC(=O)c1ccc(NC2(c3ccccc3)C(=O)c3ccccc3C2=O)cc1 here?
**A.** inconclusive [falling, full curve, poor fit]

**Q.** With CN(C)c1ccc(CNC(=O)C2CCCN(S(=O)(=O)c3ccc4c(c3)CCCC(=O)N4)C2)cc1 (stereo not drawn) as the molecule, how does the Potency read?
**A.** inconclusive [quencher]

**Q.** With Cc1ccc(S(=O)(=O)c2cn(Cc3ccccc3)c3cc(N4CCCC4)c(F)cc3c2=O)cc1 as the molecule, how does the Potency read?
**A.** inconclusive [quencher, full curve]

**Q.** For Cc1ccc(NC(=O)C(=O)NCC(c2cccnc2)N2CCN(C)CC2)cc1C (stereo not drawn), which Potency is on record?
**A.** inconclusive [quencher, partial curve]
